According to article PMC6919601, “Identification of Plasmodium dipeptidyl aminopeptidase allosteric inhibitors by high throughput screening” (PLoS ONE, 2019):
Among all 110,000 compounds or so, about 230 (0.21%) showed an effect of 50% or more. The list shows a part of the results.

Biological target: DPAP1 (Plasmodium falciparum, UniProt Q8IIJ9)
Assay: primary screen, percent inhibition; read by cleavage of a fluorogenic dipeptide substrate; higher = more effect of the substance
Set-up: species or system P. falciparum D10 trophozoite lysates; single well
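Note: 30 min substrate incubation versus DMSO and 10 µM JCP410 controls.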

DPAP1, sequence (Q8IIJ9 whole entry, looked up): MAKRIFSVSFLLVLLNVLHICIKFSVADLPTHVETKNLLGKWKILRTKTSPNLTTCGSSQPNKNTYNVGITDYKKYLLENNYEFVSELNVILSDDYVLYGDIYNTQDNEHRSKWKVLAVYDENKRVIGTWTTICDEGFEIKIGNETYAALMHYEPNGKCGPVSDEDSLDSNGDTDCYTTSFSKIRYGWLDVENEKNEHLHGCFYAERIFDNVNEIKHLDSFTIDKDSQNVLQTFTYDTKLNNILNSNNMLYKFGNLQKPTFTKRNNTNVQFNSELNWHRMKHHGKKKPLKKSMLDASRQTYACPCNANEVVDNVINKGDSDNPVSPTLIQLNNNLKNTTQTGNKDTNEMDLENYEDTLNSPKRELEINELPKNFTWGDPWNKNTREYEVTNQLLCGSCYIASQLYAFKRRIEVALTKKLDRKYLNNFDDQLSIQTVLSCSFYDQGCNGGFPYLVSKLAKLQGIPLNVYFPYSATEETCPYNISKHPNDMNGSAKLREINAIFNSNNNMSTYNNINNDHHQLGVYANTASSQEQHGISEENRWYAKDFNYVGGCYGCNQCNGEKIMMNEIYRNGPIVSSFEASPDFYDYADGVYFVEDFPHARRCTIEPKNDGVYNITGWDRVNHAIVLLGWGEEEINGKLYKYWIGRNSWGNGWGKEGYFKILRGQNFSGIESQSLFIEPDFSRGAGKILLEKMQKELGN

Row | SMILES | % Inhibition @ 10 uM
1 | Cn1nc(-c2ccccc2F)c2cc(C(=O)NC3CCCCC3)sc21 | 2%
2 | O=C(CCC1CCCC1)N1CCN(C(=O)c2cccnc2)CC1 | -1.32%
3 | CC(=O)Nc1ccc(C(=O)Nc2cc(Cl)ccc2C)cc1 | -2.99%
4 | COCC(=O)c1[nH]c2ccccc2c1C | -5.6%
5 | O=C(Nc1ccc(Cl)c(Cl)c1)NC(CC(=O)c1ccc([N+](=O)[O-])cc1)C(Cl)(Cl)Cl (stereo not drawn) | -2.18%
6 | O=C(Nc1cccc(Cl)c1Cl)c1cccc(Br)c1 | 3.25%
7 | O=C(Cn1ncn2cccc2c1=O)N1CCc2ccccc2C1 | 3.3%
8 | CC(=C\c1ccccc1)/C=C1/SC(=O)N(CC(=O)N2CCOCC2)C1=O | 10.6%
9 | COc1ccc(CNC(=O)C2C3C(=O)N(Cc4ccccc4)CC34C=CC2(C)O4)cc1 (stereo not drawn) | -3.94%
10 | CC(C)C[C@H](NC(=O)c1cccc(-c2cnc(N(C)C)s2)c1)C(=O)NCC#N | 20.1%
11 | CCOC(=O)c1c(C)[nH]c(C)c1S(=O)(=O)N(CCc1ccncc1)CC1CCCO1 (stereo not drawn) | -2.5%
12 | O=c1c(SCc2ccccc2)cc(Cl)nn1-c1ccccc1 | 0.343%
13 | O=C(NC1CCN(Cc2ccccc2)CC1)C1CCCN1c1nnc(N2CCCC2=O)s1 (stereo not drawn) | 0.623%
14 | Cc1ccccc1-c1nc(CSCC(=O)N2CCN(Cc3ccccc3)CC2)c(C)o1 | 3.99%
15 | Cc1ccnc2c(N3C(=O)C4CC=C(Cl)CC4C3=O)cccc12 (stereo not drawn) | -2.76%
16 | CC(C)CC(NC(=O)c1ccc(-c2csc(N)n2)cc1)C(=O)NCC#N (stereo not drawn) | 9%
17 | CN(C)c1nc(Nc2ccc([N+](=O)[O-])cc2)nc(OCC(F)(F)F)n1 | -1.59%
18 | Cc1cc(C(C)(C)C)cc(S(=O)(=O)NCCc2ccncc2)c1C | -0.834%
19 | CC(C)(C)c1ccc(C(=O)Nc2cnc3ccccc3c2)cc1 | -10.9%
20 | O=C(O)c1ccccc1N1C(=O)c2cc(Cl)c(Cl)cc2C1=O | 3.8%
21 | O=C1N=C(Nc2ccc(O)cc2)S/C1=C1\C(=O)Nc2ccc(Br)cc21 | 10.7%
22 | O=C(C1CCCN(S(=O)(=O)c2ccc(Cl)cc2)C1)N1CCC(Cc2ccccc2)CC1 (stereo not drawn) | 2.25%
23 | O=C(N1CCCCC1)C12CC3CCC(CC(C3)C1)C2 | -0.233%
24 | Cc1ccc(-c2cc3c4cccn4ccn3c2)cc1 | -3.65%
25 | COc1ccc(CNC(=O)c2ccc(CN3CC(=O)N4CCCCC4C3=O)cc2)cc1 (stereo not drawn) | 0.434%
26 | NC(=O)c1ccccc1NC(=O)c1ccc(-c2ccc(Cl)cc2)o1 | 8.21%
27 | SC(COCc1ccccc1)CN1CCN(c2ccccc2)CC1 (stereo not drawn) | 1.03%
